The other results are listed elsewhere or left out.
Key:
Test in all cases: glycan array binding signal (z-score within array); higher = stronger binding
Details in all cases: glycan notation: IUPAC condensed, linker removed
[1] = target: Neu5Ac(a2-3)Gal(b1-4)GlcNAc(b1-6)GalNAc
Summary of the method: (§1)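 Negative Z-scores can be read as non-binding. The Z-score is calculated within each array and then averaged across arrays of one protein sequence at different concentrations or buffers and across linkers. Arrays, 3228 in all, were curated from the Consortium for Functional Glycomics database and kept only where the protein sequence was available.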

[2] = target: Neu5Ac(a2-3)Gal(b1-4)GlcNAc(b1-6)[Gal(b1-3)]GalNAc
Summary of the method: as §1

[3] = target: Neu5Ac(a2-3)Gal(b1-4)GlcNAc(b1-6)[Neu5Ac(a2-3)Gal(b1-3)]GalNAc
Summary of the method: as §1

[4] = target: Neu5Ac(a2-3)Gal(b1-4)GlcNAc6S
Summary of the method: as §1

[5] = target: Neu5Ac(a2-3)Gal(b1-4)[Fuc(a1-3)]GlcNAc
Summary of the method: as §1

[6] = target: Neu5Ac(a2-3)Gal(b1-4)[Fuc(a1-3)]GlcNAc(b1-2)Man
Summary of the method: as §1

[7] = target: Neu5Ac(a2-3)Gal(b1-4)[Fuc(a1-3)]GlcNAc(b1-3)Gal
Summary of the method: as §1

[8] = target: Neu5Ac(a2-3)Gal(b1-4)[Fuc(a1-3)]GlcNAc(b1-3)Gal(b1-4)GlcNAc
Summary of the method: as §1

[9] = target: Neu5Ac(a2-3)Gal(b1-4)[Fuc(a1-3)]GlcNAc(b1-3)Gal(b1-4)[Fuc(a1-3)]GlcNAc(b1-3)Gal(b1-4)[Fuc(a1-3)]GlcNAc
Summary of the method: as §1

[10] = target: Neu5Ac(a2-3)Gal(b1-4)[Fuc(a1-3)]GlcNAc(b1-3)GalNAc
Summary of the method: as §1

[11] = target: Neu5Ac(a2-3)Gal(b1-4)[Fuc(a1-3)]GlcNAc(b1-6)[Gal(b1-3)]GalNAc
Summary of the method: as §1

[12] = target: Neu5Ac(a2-3)Gal(b1-4)[Fuc(a1-3)]GlcNAc(b1-6)[Neu5Ac(a2-3)Gal(b1-3)]GalNAc
Summary of the method: as §1

[13] = target: Neu5Ac(a2-3)Gal(b1-4)[Fuc(a1-3)]GlcNAc6S
Summary of the method: as §1

[14] = target: Neu5Ac(a2-3)Gal6S(b1-4)GlcNAc
Summary of the method: as §1

[15] = target: Neu5Ac(a2-3)Gal6S(b1-4)[Fuc(a1-3)]GlcNAc
Summary of the method: as §1

[16] = target: Neu5Ac(a2-3)GalNAc
Summary of the method: as §1

[17] = target: Neu5Ac(a2-3)GalNAc(b1-4)GlcNAc
Summary of the method: as §1

[18] = target: Neu5Ac(a2-3)[GalNAc(b1-4)]Gal(b1-4)Glc
Summary of the method: as §1

[19] = target: Neu5Ac(a2-3)[GalNAc(b1-4)]Gal(b1-4)GlcNAc
Summary of the method: as §1

[20] = target: Neu5Ac(a2-3)[GalNAc(b1-4)]Gal(b1-4)GlcNAc(b1-3)GalNAc
Summary of the method: as §1

[21] = target: Neu5Ac(a2-3)[Neu5Ac(a2-6)]GalNAc
Summary of the method: as §1

[22] = target: Neu5Ac(a2-6)Gal
Summary of the method: as §1

[23] = target: Neu5Ac(a2-6)Gal(b1-3)GlcNAc(b1-3)[Gal(b1-4)GlcNAc(b1-6)]Gal(b1-4)Glc
Summary of the method: as §1

[24] = target: Neu5Ac(a2-6)Gal(b1-4)Glc
Summary of the method: as §1

[25] = target: Neu5Ac(a2-6)Gal(b1-4)GlcNAc
Summary of the method: as §1

[26] = target: Neu5Ac(a2-6)Gal(b1-4)GlcNAc(b1-2)Man
Summary of the method: as §1

[27] = target: Neu5Ac(a2-6)Gal(b1-4)GlcNAc(b1-2)Man(a1-3)Man(b1-4)GlcNAc(b1-4)GlcNAc
Summary of the method: as §1

[28] = target: Neu5Ac(a2-6)Gal(b1-4)GlcNAc(b1-2)Man(a1-3)[Gal(b1-4)GlcNAc(b1-2)Man(a1-6)]Man(b1-4)GlcNAc(b1-4)GlcNAc
Summary of the method: as §1

[29] = target: Neu5Ac(a2-6)Gal(b1-4)GlcNAc(b1-2)Man(a1-3)[GlcNAc(b1-2)Man(a1-6)]Man(b1-4)GlcNAc(b1-4)GlcNAc
Summary of the method: as §1

[30] = target: Neu5Ac(a2-6)Gal(b1-4)GlcNAc(b1-2)Man(a1-3)[GlcNAc(b1-4)][Neu5Ac(a2-6)Gal(b1-4)GlcNAc(b1-2)Man(a1-6)]Man(b1-4)GlcNAc(b1-4)GlcNAc
Summary of the method: as §1

[31] = target: Neu5Ac(a2-6)Gal(b1-4)GlcNAc(b1-2)Man(a1-3)[Man(a1-6)]Man(b1-4)GlcNAc(b1-4)GlcNAc
Summary of the method: as §1

[32] = target: Neu5Ac(a2-6)Gal(b1-4)GlcNAc(b1-2)Man(a1-3)[Neu5Ac(a2-3)Gal(b1-4)GlcNAc(b1-2)Man(a1-6)]Man(b1-4)GlcNAc(b1-4)GlcNAc
Summary of the method: as §1

[33] = target: Neu5Ac(a2-6)Gal(b1-4)GlcNAc(b1-2)Man(a1-3)[Neu5Ac(a2-6)Gal(b1-4)GlcNAc(b1-2)Man(a1-6)]Man(b1-4)GlcNAc(b1-4)GlcNAc
Summary of the method: as §1

[34] = target: Neu5Ac(a2-6)Gal(b1-4)GlcNAc(b1-2)Man(a1-3)[Neu5Ac(a2-6)Gal(b1-4)GlcNAc(b1-2)Man(a1-6)]Man(b1-4)GlcNAc(b1-4)[Fuc(a1-6)]GlcNAc
Summary of the method: as §1

[35] = target: Neu5Ac(a2-6)Gal(b1-4)GlcNAc(b1-2)Man(a1-6)Man(b1-4)GlcNAc(b1-4)GlcNAc
Summary of the method: as §1

[36] = target: Neu5Ac(a2-6)Gal(b1-4)GlcNAc(b1-2)Man(a1-6)[Gal(b1-4)GlcNAc(b1-2)Man(a1-3)]Man(b1-4)GlcNAc(b1-4)GlcNAc
Summary of the method: as §1

[37] = target: Neu5Ac(a2-6)Gal(b1-4)GlcNAc(b1-2)Man(a1-6)[GlcNAc(b1-2)Man(a1-3)]Man(b1-4)GlcNAc(b1-4)GlcNAc
Summary of the method: as §1

[38] = target: Neu5Ac(a2-6)Gal(b1-4)GlcNAc(b1-2)Man(a1-6)[Man(a1-3)]Man(b1-4)GlcNAc(b1-4)GlcNAc
Summary of the method: as §1

[39] = target: Neu5Ac(a2-6)Gal(b1-4)GlcNAc(b1-2)[Neu5Ac(a2-6)Gal(b1-4)GlcNAc(b1-4)]Man(a1-3)[GlcNAc(b1-4)][Neu5Ac(a2-6)Gal(b1-4)GlcNAc(b1-2)[Neu5Ac(a2-6)Gal(b1-4)GlcNAc(b1-6)]Man(a1-6)]Man(b1-4)GlcNAc(b1-4)GlcNAc
Summary of the method: as §1

[40] = target: Neu5Ac(a2-6)Gal(b1-4)GlcNAc(b1-2)[Neu5Ac(a2-6)Gal(b1-4)GlcNAc(b1-4)]Man(a1-3)[GlcNAc(b1-4)][Neu5Ac(a2-6)Gal(b1-4)GlcNAc(b1-4)Man(a1-6)]Man(b1-4)GlcNAc(b1-4)GlcNAc
Summary of the method: as §1

[41] = target: Neu5Ac(a2-6)Gal(b1-4)GlcNAc(b1-2)[Neu5Ac(a2-6)Gal(b1-4)GlcNAc(b1-6)]Man(a1-6)[Neu5Ac(a2-6)Gal(b1-4)GlcNAc(b1-2)Man(a1-3)][GlcNAc(b1-4)]Man(b1-4)GlcNAc(b1-4)GlcNAc
Summary of the method: as §1

[42] = target: Neu5Ac(a2-6)Gal(b1-4)GlcNAc(b1-3)Gal(b1-3)GlcNAc
Summary of the method: as §1

[43] = target: Neu5Ac(a2-6)Gal(b1-4)GlcNAc(b1-3)Gal(b1-4)GlcNAc
Summary of the method: as §1

[44] = target: Neu5Ac(a2-6)Gal(b1-4)GlcNAc(b1-3)Gal(b1-4)GlcNAc(b1-2)Man(a1-3)[Neu5Ac(a2-6)Gal(b1-4)GlcNAc(b1-3)Gal(b1-4)GlcNAc(b1-2)Man(a1-6)]GalNAc
Summary of the method: as §1

[45] = target: Neu5Ac(a2-6)Gal(b1-4)GlcNAc(b1-3)Gal(b1-4)GlcNAc(b1-3)Gal(b1-4)GlcNAc
Summary of the method: as §1

B1: PLU (Photorhabdus luminiscence) (protein)
chain: HHHHHHENLYFQSSIVFASIDPRSNPLQTSSQNYVDIPGLKLDVSKYSNSPCLTALITLNIPTPYASGNNFPGGNFAIVTDQGEQLAYGGFTYSSKIPENSGRMPFTLVARYSLASNVSTIKAQWSNIRGSTVHIDSYASISAVIQCNQLV
glycan array binding signal (z-score) [1]: -0.289
glycan array binding signal (z-score) [2]: -0.144
glycan array binding signal (z-score) [3]: -0.34
glycan array binding signal (z-score) [4]: -0.362
glycan array binding signal (z-score) [5]: -0.304
glycan array binding signal (z-score) [6]: -0.237
glycan array binding signal (z-score) [7]: -0.325
glycan array binding signal (z-score) [8]: -0.205
glycan array binding signal (z-score) [9]: -0.382
glycan array binding signal (z-score) [10]: -0.087
glycan array binding signal (z-score) [11]: -0.092
glycan array binding signal (z-score) [12]: -0.178
glycan array binding signal (z-score) [13]: -0.225
glycan array binding signal (z-score) [14]: -0.282
glycan array binding signal (z-score) [15]: -0.369
glycan array binding signal (z-score) [16]: -0.318
glycan array binding signal (z-score) [17]: -0.294
glycan array binding signal (z-score) [18]: -0.324
glycan array binding signal (z-score) [19]: -0.263
glycan array binding signal (z-score) [20]: -0.267
glycan array binding signal (z-score) [21]: -0.281
glycan array binding signal (z-score) [22]: -0.306
glycan array binding signal (z-score) [23]: -0.377
glycan array binding signal (z-score) [24]: -0.273
glycan array binding signal (z-score) [25]: -0.248
glycan array binding signal (z-score) [26]: -0.311
glycan array binding signal (z-score) [27]: -0.243
glycan array binding signal (z-score) [28]: -0.224
glycan array binding signal (z-score) [29]: -0.283
glycan array binding signal (z-score) [30]: -0.164
glycan array binding signal (z-score) [31]: -0.232
glycan array binding signal (z-score) [32]: -0.296
glycan array binding signal (z-score) [33]: -0.244
glycan array binding signal (z-score) [34]: 0.022
glycan array binding signal (z-score) [35]: -0.189
glycan array binding signal (z-score) [36]: -0.27
glycan array binding signal (z-score) [37]: -0.263
glycan array binding signal (z-score) [38]: -0.231
glycan array binding signal (z-score) [39]: -0.205
glycan array binding signal (z-score) [40]: -0.267
glycan array binding signal (z-score) [41]: -0.279
glycan array binding signal (z-score) [42]: -0.333
glycan array binding signal (z-score) [43]: -0.318
glycan array binding signal (z-score) [44]: -0.239
glycan array binding signal (z-score) [45]: -0.311

Reference: the supplement of paper PMC8728848
